# Data: PubChem BioAssay AID2071 (Sanford-Burnham Center for Chemical Genomics, 2009)
# The list shows a part of the results. Further columns of the screen follow, without active or inactive calls. Most of these compounds were active or inconclusive in the main read-out, so they are no random draw.
# Test: NALP1 inflammasome inhibitors in reconstituted yeast, colorimetric, S. cerevisiae, triplicate retest (AID 2071)
# Details: S. cerevisiae NALP1/ASC/caspase-1 growth, X-gal OD620, 72 h, at 20 µM, stronger effect = higher value
row,SMILES,inhibition [%]
1,O=[N+]([O-])c1ccc(OCC(O)CN2CCN(c3ccccc3F)CC2)cc1 (stereo not given),54.9
2,CCCCOc1ccc(C(=O)CCN2CCCCC2)cc1,50
3,Cc1ccc(C(C[N+](=O)[O-])c2c(N)n(C)c(=O)n(C)c2=O)cc1 (stereo not given),101
4,CCCOc1ccccc1NC(=O)/C=C/C(N)=O,111
5,CCn1ncc(C(=O)Nc2cccc(Cl)c2)c1C,57.9
6,Nc1ccc(C(=O)c2cccs2)cc1,53.9
7,CCCCOc1ccc(CSC2=NCCN2)cc1[N+](=O)[O-],50.5
8,CCc1oc2ccccc2c1C(=O)CCN1CCCCC1,105
9,CCOc1cc(CNCc2ccncc2)cc(Br)c1OCc1ccc(F)cc1,70.6
10,c1ccc(-c2ccc(-c3cn4c(n3)CCC4)cc2)cc1,50.8
11,O=[N+]([O-])c1ccc(O)c2ncccc12,96.2
12,Cc1ccc(CSCCNC(=O)CSCc2ccc([N+](=O)[O-])cc2)cc1,59.2
13,CN(C)CCN(C(=O)/C=C/c1cccs1)c1nc2ccc(F)cc2s1,70.3
14,CN(Cc1ccccc1)C(=O)c1ccc([N+](=O)[O-])o1,75.7
15,CNC(=S)N/N=C/c1cc(Br)cc(Br)c1O,55.6
16,CCN(CC)C1CC(=O)N(c2cccc(C)c2)C1=O (stereo not given),111
17,O=C(c1ccccc1)c1c2c(cc3sc4ccccc4[n+]13)-c1cccc3cccc-2c13,96.2
18,CCCc1nn(C)c(C(=O)Nc2cccc(C)c2)c1Cl,53.5
19,O=C(O)c1ccccc1SC1CC(=O)N(c2ccccc2)C1=O (stereo not given),106
20,OC(CSc1c(Cl)cccc1Cl)CN1CCN(c2ccccc2F)CC1 (stereo not given),59.7
21,CC(C)CN=Cc1c(O)c([N+](=O)[O-])cc2oc3c(c12)CCCC3,56.3
22,CCN(CC)c1ccc(/C=C2/SC(=O)N(C(C)C)C2=O)o1,65.9
23,Cc1ccc2nc(N(CCCN(C)C)C(=O)CCc3ccccc3)sc2c1,94
24,CC1=NNC(=O)/C1=C\c1cn(-c2ccccc2)nc1-c1cccs1,72.5
25,CC(NC(=O)/C(C#N)=C/c1ccc([N+](=O)[O-])o1)c1ccccc1 (stereo not given),91.5
